{"source": "PubChem BioAssay AID651820", "about": "(National Center for Advancing Translational Sciences (NCATS), 2012)", "note": "“And” between values parts separate entries of the source, which are not always exact repeats. Identical values can stand only once. The whole screen tested about 340,000 compounds, of which about 12,000 (3.5%) were called active. The inconclusive results got no clear call from the source; some entries with a clear call stand among them for comparison. Calls come from the whole dose curve; as a rule, active = well fitted inhibition curve with a large enough effect; inconclusive = small, poorly fitted or top-dose-only effect, or another doubt; inactive = no such curve, though single readings can be large or run the other way. A potency beside an inconclusive call is a rough fit, not a confirmed value. Potency is the fitted concentration of half-maximal effect; tags give direction and shape of the fitted curve."}
{"test": "qHTS Assay for Inhibitors of Hepatitis C Virus (HCV)", "conditions": "Huh7.5.1 HCVcc-Cre (HCVcc is cell-culture hepatitis C virus) infection, luciferase reporter, 44 h; series mostly up to 41.8 µM", "summary_of_the_method": "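A cell-based infection assay in which seeded cells (1,000 per well) receive test compound after 4 h, are inoculated with HCVcc-Cre at approximately 0.5 moi, and are incubated 44 h before luminescence detection.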"}
{"smiles": "O=C1c2ccccc2CN1CCSC(=S)N1CCOCC1", "Potency": "inactive"}
{"smiles": "O=C(NCC1CCCCC1)c1cc(S(=O)(=O)N2CCCCC2)ccc1Cl", "Potency": "inconclusive: 11.2 µM [inhibitor, single point]"}
{"smiles": "COc1ccc(C2CC(c3ccc(F)cc3)=NN2c2ccccc2)cc1OC", "note": "(stereo not given)", "Potency": "inconclusive: 31.6 µM [inhibitor, single point]"}
{"smiles": "CCOc1cc(/C=N/NC(=O)c2cccc([N+](=O)[O-])c2)ccc1OS(=O)(=O)c1ccccc1", "Potency": "active: 8.91 µM"}
{"smiles": "CC(NC(=O)c1cc(S(=O)(=O)N2CCOCC2)ccc1F)c1ccc(-n2ccnc2)cc1", "note": "(stereo not given)", "Potency": "inconclusive: 31.6 µM [inhibitor, single point]"}
{"smiles": "Cc1ccc(CNS(=O)(=O)c2ccc([N+](=O)[O-])cc2)cc1", "Potency": "inactive"}
{"smiles": "Cc1ccccc1Cn1c(CN2CCc3ccccc3C2)nc2c1c(=O)n(C)c(=O)n2C", "Potency": "inconclusive: 11.2 µM [inhibitor, single point]"}
{"smiles": "COc1ccc(CN=C(N)N=C(N)N)cc1Cl", "Potency": "inconclusive: 22.4 µM [inhibitor, single point]"}
{"smiles": "CCN(C[C@H]1N[C@@](CC)(C(=O)OC)[C@H]2C(=O)N(Cc3ccccc3)C(=O)[C@@H]12)C(=O)Nc1ccc(C(F)(F)F)cc1", "Potency": "inconclusive: 0.501 µM [inhibitor, full curve, poor fit]"}
{"smiles": "CC1N(C)c2cc(NC(=O)c3ccco3)c(P(=O)(Nc3ccc([N+](=O)[O-])cc3)N3CCOCC3)cc2C1(C)C", "note": "(stereo not given)", "Potency": "active: 8.91 µM"}
{"smiles": "COc1c2c(cc3oc(=O)ccc13)OC(C)(C)C=C2", "Potency": "inconclusive: 10 µM [inhibitor, single point]"}
{"smiles": "CCCNC(=O)c1csc(Nc2cccc3ccccc23)n1", "Potency": "inactive"}
{"smiles": "Cc1ccc(NC(=O)c2cc(N(C)C)ccc2[P+](=O)O)cc1", "Potency": "inactive"}
{"smiles": "CNC(=O)COc1ccccc1C(=O)Nc1ccc2c(c1)oc1ccccc12", "Potency": "inconclusive: 22.4 µM [inhibitor, partial curve, poor fit]"}
{"smiles": "C=C1C(=O)O[C@@H]2C[C@@H](C)[C@@H]3C=CC(=O)[C@@]3(C)[C@@H](OC(C)=O)[C@H]12", "Potency": "active: 2.82 µM"}
{"smiles": "Cc1cc(=O)oc2c(CN3CCOCC3)c(O)ccc12", "Potency": "inactive"}
{"smiles": "CCc1cc2c(=O)c(Oc3ccccc3F)c(C)oc2c(CN(C)C)c1O", "Potency": "inactive"}
{"smiles": "COc1ccc(C(=O)NCc2nnc(SCC(=O)Nc3cc(C)on3)o2)cc1OC", "Potency": "inactive"}
{"smiles": "CCC(C(=O)NC1CCCCC1)n1c(SCc2ccccc2F)nc2ccncc21", "note": "(stereo not given)", "Potency": "inactive"}
{"smiles": "COc1ccc(Br)c(/C=N/NC(=O)COc2ccc(-c3ccccc3)cc2)c1", "Potency": "active: 7.94 µM"}
{"smiles": "COc1cccc(/C=C(/C#N)c2ccc(F)cc2)c1OCc1cccc(C(=O)O)c1", "Potency": "inactive"}
{"smiles": "O=C(Nc1ccccc1F)Nc1cccc2ccc(O)cc12", "Potency": "inconclusive: 11.2 µM [inhibitor, partial curve]"}
{"smiles": "Cc1nc(SCC(=O)Nc2ccc3c(c2)OCCO3)nc(C)c1C", "Potency": "inconclusive: 31.6 µM [inhibitor, single point]"}
{"smiles": "Cc1ccn2cc(-c3cccc(S(=O)(=O)N4CCCC4)c3)nc2c1", "Potency": "active: 11.2 µM"}
{"smiles": "CC(C)=NOc1cc(NC(=O)CCl)cc([N+](=O)[O-])c1", "Potency": "active: 25.1 µM"}
{"smiles": "CCN(CC)C(=O)[C@H]1CC(CC(=O)NCCC2=CCCCC2)C(=O)N2CCc3c([nH]c4ccccc34)[C@]12C", "note": "(stereo not given in full)", "Potency": "inconclusive: 31.6 µM [inhibitor, single point]"}
{"smiles": "O=S(=O)(CCSc1nc2ccccc2o1)c1nc2ccccc2s1", "Potency": "active: 11.2 µM"}
{"smiles": "COc1cc(C(C)=O)ccc1Oc1ncnc2c1cnn2-c1ccc(F)cc1", "Potency": "inconclusive: 1.41 µM [inhibitor, partial curve]"}
{"smiles": "O=C(COc1ccccc1)N(CCc1ccccc1)c1nc(-c2ccc(F)cc2)cs1", "Potency": "inactive"}
{"smiles": "CC1CCCN(Cc2nc3c(c(=O)n(C)c(=O)n3C)n2CCCc2ccccc2)C1", "note": "(stereo not given)", "Potency": "inconclusive: 14.1 µM [inhibitor, single point]"}
{"smiles": "COc1ccc(/C=C/C(=O)NCc2c(C)nn(C)c2C)cc1COc1ccc(Br)cc1", "Potency": "inconclusive: 0.316 µM [inhibitor, full curve, poor fit]"}
{"smiles": "COc1ccc(C(=O)NCc2ccc3c(c2)OCO3)cc1S(=O)(=O)NCc1ccc(Cl)cc1", "Potency": "inconclusive: 20 µM [inhibitor, partial curve]"}
{"smiles": "O=C(NCCc1ccc(C(F)(F)F)cc1)C1CCC(=O)N(CCc2cccc(F)c2)C1", "note": "(stereo not given)", "Potency": "inactive"}
{"smiles": "COc1ccc(Cl)cc1C(=O)Nc1ccc2nc3n(c(=O)c2c1)CCCC3", "Potency": "inconclusive: 31.6 µM [inhibitor, single point]"}
{"smiles": "CC(C)Cn1c(=S)[nH]c2cc(C(=O)NCc3ccccc3F)ccc2c1=O", "Potency": "inconclusive: 1.78 µM [inhibitor, partial curve]"}
{"smiles": "Cc1ccc(CN2C(=O)N/C(=C/c3ccc(-c4ccc(C(=O)O)cc4)o3)C2=O)cc1", "Potency": "inactive"}
{"smiles": "CCn1c(SCC(=O)N2c3ccccc3Sc3ccccc32)nc2c1c(=O)n(C)c(=O)n2C", "Potency": "inconclusive: 31.6 µM [inhibitor, single point] and inconclusive: 2.82 µM [inhibitor, single point]"}
{"smiles": "O=C(C[n+]1cc(Br)cc2ccccc21)c1ccc(F)cc1", "Potency": "active: 10 µM"}
{"smiles": "CC(NC(=O)c1cccc(C(F)(F)F)c1)C1CCCO1", "note": "(stereo not given)", "Potency": "inconclusive: 22.4 µM [inhibitor, partial curve]"}
{"smiles": "CCCc1nc(SCc2ccccn2)c2c(=O)n(C)c(=O)n(C)c2n1", "Potency": "active: 10 µM"}
{"smiles": "O=C(Nc1cccc([N+](=O)[O-])c1)c1ccc2c(c1)OCCO2", "Potency": "inactive"}
{"smiles": "COc1cccc(-c2ccc(-c3noc(-c4ccccc4F)n3)c(OC)n2)c1", "Potency": "inconclusive: 3.16 µM [inhibitor, full curve, poor fit]"}
{"smiles": "CCCN(CCC)CCCNC(=O)c1cc2c(=O)[nH]c3ccccc3c2s1", "Potency": "inconclusive: 31.6 µM [inhibitor, single point]"}
{"smiles": "COc1ccc(C(=O)OCC(=O)NC(=O)NC2CCCC2)cc1OC", "Potency": "inactive"}
{"smiles": "CCCCN(CC)CCNC(=S)Nc1ccc2nc(N3CCN(C)CC3)cc(C)c2c1", "Potency": "active: 0.891 µM"}
